# According to PMC4336329 (PLoS ONE, 2015):
# Among all 310,000 compounds or so, about 2,200 (0.71%) showed an effect of 50% or more. The effect is printed as a negative number. Some of the results follow.
# Target: human ether-à-go-go-related gene (hERG) potassium channel (human, UniProt Q12809)
# Experiment: primary screen, population patch clamp on CHO cells stably expressing hERG
# human ether-à-go-go-related gene (hERG) potassium channel, sequence (Q12809 whole entry, looked up): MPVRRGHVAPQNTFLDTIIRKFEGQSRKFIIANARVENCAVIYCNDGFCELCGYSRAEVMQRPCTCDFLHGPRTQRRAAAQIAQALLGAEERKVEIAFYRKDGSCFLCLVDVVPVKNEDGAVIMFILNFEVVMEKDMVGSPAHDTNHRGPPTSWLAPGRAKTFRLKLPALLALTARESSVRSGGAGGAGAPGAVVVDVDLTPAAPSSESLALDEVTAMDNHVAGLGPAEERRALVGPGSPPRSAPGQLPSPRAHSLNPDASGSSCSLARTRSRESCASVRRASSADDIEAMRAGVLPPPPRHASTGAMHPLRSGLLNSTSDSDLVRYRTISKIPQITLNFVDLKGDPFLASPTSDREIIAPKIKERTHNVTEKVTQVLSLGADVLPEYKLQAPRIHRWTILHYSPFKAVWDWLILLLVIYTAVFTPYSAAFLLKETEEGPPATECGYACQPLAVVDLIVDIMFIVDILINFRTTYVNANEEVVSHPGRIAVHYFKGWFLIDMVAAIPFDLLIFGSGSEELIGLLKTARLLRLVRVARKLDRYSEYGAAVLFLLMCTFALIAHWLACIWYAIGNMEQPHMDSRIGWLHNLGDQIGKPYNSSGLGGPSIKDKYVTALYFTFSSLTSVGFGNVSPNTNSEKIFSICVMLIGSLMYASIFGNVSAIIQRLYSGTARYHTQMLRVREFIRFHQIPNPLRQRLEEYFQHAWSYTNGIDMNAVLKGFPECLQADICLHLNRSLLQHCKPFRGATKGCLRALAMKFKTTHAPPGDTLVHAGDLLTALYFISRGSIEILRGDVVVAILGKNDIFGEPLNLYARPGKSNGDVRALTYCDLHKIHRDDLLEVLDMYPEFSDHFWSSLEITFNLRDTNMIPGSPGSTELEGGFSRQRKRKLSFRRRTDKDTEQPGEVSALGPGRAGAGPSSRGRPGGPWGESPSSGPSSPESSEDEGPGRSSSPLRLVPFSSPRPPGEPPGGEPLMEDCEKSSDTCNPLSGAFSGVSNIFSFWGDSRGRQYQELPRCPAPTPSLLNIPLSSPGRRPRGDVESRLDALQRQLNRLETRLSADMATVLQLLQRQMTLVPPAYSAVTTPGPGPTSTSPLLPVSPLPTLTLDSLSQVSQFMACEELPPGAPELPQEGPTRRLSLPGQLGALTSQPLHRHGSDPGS
row,SMILES,"hERG current change (%, negative = inhibition) at 1uM [%]"
1,Cc1c(C(=O)N2CCCCC2)c(S(=O)(=O)N2CCN(c3ccccc3F)CC2)c(C)n1C,14.6
2,COc1ccc(N2CCN(C(=O)C3CCN(S(=O)(=O)c4cccs4)CC3)CC2)cc1,6.87
3,O=C(OCC1CC(c2ccccc2Cl)=NO1)c1ccc(Br)cc1 (stereo not shown),14.5
4,Cc1c(C(=O)N2CCN(c3ccccc3)CC2)sc2nc3n(c(=O)c12)CCC3,16.6
5,CCCCNC(=O)c1ccc2c(c1)S(=O)(=O)c1ccccc1C2=O,2.68
6,Cc1ccc(NC(=O)CS(=O)Cc2nc(-c3ccc(C)cc3)oc2C)cc1 (stereo not shown),-6.18
7,Cc1nn(-c2ccccc2)c(Cl)c1/C=C/C(=O)c1ccc(O)cc1,12
8,Cc1[nH]c2ccc(Br)cc2c(=S)c1C/C=C/Cl,5.3
9,O=C(NC(=S)Nc1ccc(Cl)cc1Cl)C1CC1,8.58
10,Cc1cc(C(=O)OCC(=O)NCc2ccco2)c(C)n1-c1ccccc1,16.3
11,CCCCCCCN1CCC(=O)N([C@H](CO)c2ccccc2)CC1,-25.8
12,O=C1CC[C@H](O)CCN1[C@H](CSc1ccccc1)Cc1ccccc1,8.42
13,CC(OC(=O)c1ccncc1)C(=O)Nc1ccc([N+](=O)[O-])cc1Cl (stereo not shown),-16.4
14,CCN1CCOC(CC(=O)Nc2cccc([N+](=O)[O-])c2)C1=O (stereo not shown),3.36
15,CCC(C(=O)OCC(=O)Nc1cc(Cl)cc(Cl)c1)c1ccccc1 (stereo not shown),24
16,COc1ccc(NC(=O)CSc2cc(C(=O)c3nccn3C)c3ccccc3n2)cc1,13.8
17,NC(=O)c1coc(-c2ccccc2)n1,12.3
18,CCC(C)NC(=O)CC(NS(=O)(=O)c1ccc(Cl)cc1)c1ccco1 (stereo not shown),6.27
19,Cc1noc(C)c1COc1ccc(C(=O)OCC(=O)c2ccc3c(c2)OCCO3)cc1,6.25
20,Cc1cc(C)cc(S(=O)(=O)c2cn(C)c3cc(N4CCN(C)CC4)c(F)cc3c2=O)c1,3.36
21,COCCN(C(=S)Nc1cccc(C)c1)C(C)c1cccnc1 (stereo not shown),3.39
22,Cc1ccc(N(CCC#N)C(=O)COC(=O)C2CCN(S(=O)(=O)c3ccc4c(c3)OCCO4)CC2)cc1,13.5

row,SMILES,"hERG current change (%, negative = inhibition) at 1uM [%]"
1,CCc1cc2c3c(c1)C(C)CC(C)(C)N3C(=O)/C2=C1\SC(=O)NC1=O (stereo not shown),11.9
2,CC1(C)CC(=O)C2=C(C1)Nc1cc(C(=O)c3ccccc3)ccc1NC2c1ccccn1 (stereo not shown),11.7
3,COc1ccc(C(=O)Nc2ccccc2C(=O)NC(C(=O)NCc2ccco2)C(C)C)cc1 (stereo not shown),3.01
4,COc1ccc(NC(=O)CCCCCn2nnc3ccccc3c2=O)cc1,14.5
5,O=C(NCC1CCCCC1)c1ccc(Cl)nc1,17.4
6,COc1cccc(-c2ccc(SCC(=O)c3ccccc3)nn2)c1,-1.66
7,CCC(=O)c1ccc(OCC(O)CN2CCN(c3cccc(C(F)(F)F)c3)CC2)cc1 (stereo not shown),10.2
8,COc1ccc(Cc2nnc(NC(=O)c3ccc(OC)c(OC)c3)s2)cc1,14.3
9,COC(=O)c1sc(-c2ccccc2)cc1NC(=O)c1ccc(OC)cc1,17
10,CCc1noc(C)c1C(=O)Oc1ccc(N(C)S(=O)(=O)c2ccccc2)cc1,6.65
11,CC(CNC(=O)c1cccc(Br)c1)n1cncn1 (stereo not shown),13.4
12,COc1ccc(S(=O)(=O)N2CCC(C(=O)NC3CCCCC3)CC2)cc1C,8.1
13,C[C@H](NC(=O)c1ccco1)C(=O)Nc1ccc(S(=O)(=O)N2CCCC2)cc1,5.53
14,COC(=O)c1ccc(N2CCN(S(=O)(=O)c3ccc(Br)cc3)CC2)c([N+](=O)[O-])c1,13
15,CCN(CC)CCCNc1nc2ccccc2[nH]1,13
16,Cc1ccc(-n2ncc3c(Nc4c(C)n(C)n(-c5ccccc5)c4=O)ncnc32)c(C)c1,8.86
17,CCOC(=O)CSc1nnc(CNc2ccc(F)cc2)o1,2.69
18,Cc1ccc(S(=O)(=O)N(CC(O)CN2CCOCC2)c2cccc([N+](=O)[O-])c2)cc1 (stereo not shown),2.27
19,CC(C)(C)c1ccc(Cn2ccc(-c3ccc4c(c3)OCO4)n2)cc1,10
20,N#Cc1cc(-c2ccccc2)cnc1Sc1ccc(Cl)cc1,-17.2
21,C=CCNc1scc(-c2ccccc2)[n+]1CC=C.[Br-],0.81
22,Cc1ccccc1Cn1nnc(-c2cccc(C(=O)O)c2)n1,5.51

row,SMILES,"hERG current change (%, negative = inhibition) at 1uM [%]"
1,O=C(NCC1(c2ccccc2)CCCC1)c1ccc(Br)cc1,8.41
2,CCC(=O)Nc1nonc1-c1nc2ccccc2n1CC(C)C,-5.27
3,Cc1cccc(NC(=O)c2cnc3n(c2=O)CCS3)c1,-0.584
4,NC(=O)CC(NC(=O)Cc1ccc(Br)cc1)c1ccc(N2CCC(N3CCCCC3)CC2)c([N+](=O)[O-])c1 (stereo not shown),17.3
5,Oc1cccc(/C=N/N2CCCCC2)c1O,7.04
6,Nc1nonc1C(=O)NCCNC(=O)c1ccccc1F,7.28
7,COC(=O)c1cn(C(=O)c2cccc(Br)c2)c2ccccc12,7.93
8,CCOc1cc(C(=O)NCc2nnc(SCC(=O)OC)n2C)cc(OCC)c1OCC,1.33
9,C[C@H]1CCC[C@@]2(O[C@@H](CCO)C[C@H](O)[C@H]2O)O1,16.4
10,COc1ccc(CC(=O)NCCc2ccc(S(N)(=O)=O)cc2)cc1,14.4
11,COC(=O)c1cccc(N(CC(=O)NC2CCCC2)C(=O)CNC(=O)c2cccs2)c1,12.3
12,Cn1nc(C(C)(C)C)cc1C(=O)NNC(=O)c1cccc(Cl)c1,12.9
13,COC(=O)C1=C(Nc2ccc(C)cc2)C=C(C)C(C(=O)OC)C1c1cccc(OC)c1 (stereo not shown),1.77
14,COc1cccc(Nc2nnc(Cc3cccnc3)c3ccccc23)c1,-83.2
15,CCOC(=O)N1CCN(CC(O)COc2ccccc2C(C)C)CC1.Cl (stereo not shown),6.1
16,COCCCNCCOc1ccc(C(C)(C)c2ccccc2)cc1.O=C(O)C(=O)O,-2.99
17,CC(OC(=O)C1CCC(=O)N1)C(=O)Nc1cc(Cl)cc(Cl)c1 (stereo not shown),5.74
18,CN(CC(=O)N1CCN(c2ccccn2)CC1)S(=O)(=O)c1ccccc1,6.61
19,c1ccc(OCc2nc3c4c(ncn3n2)-c2ccccc2CC42CCCC2)cc1,4.05
20,COC(=O)C1=C(C)Nc2nnnn2C1c1ccco1 (stereo not shown),2.86
21,O=C(NCc1ccc2[nH]c3c(c2c1)CCCC3)N1CCOCC1,7.25
22,CC(NC(=O)Cn1nc(C(F)(F)F)c2c1CCC2)c1ccccc1 (stereo not shown),0.954

row,SMILES,"hERG current change (%, negative = inhibition) at 1uM [%]"
1,O=C(CSc1cccc[n+]1[O-])c1ccc(Cl)s1,8.71
2,COc1ccccc1CCNC(=O)c1cnccn1,-0.0182
3,O=C(COc1ccccc1)Nc1ncn[nH]1,14
4,O=C(O)c1ccc(COc2ccc(CO)cc2Cl)cc1,-1.7
5,CC(=O)N1CCN(c2ccc(S(=O)(=O)N3CCCCC3)cn2)CC1,-1.13
6,COc1cc(/C=C/CN2CCN(CCC(C)C)C(CCO)C2)ccc1O (stereo not shown),12.9
7,O=C(CC1(O)C(=O)Nc2ccccc21)c1ccccc1O (stereo not shown),6.42
8,Cc1cccc2cc(CN(C(=O)c3cccc([N+](=O)[O-])c3)C(C)C)c(=O)[nH]c12,8.45
9,CCCSC1=C(C#N)C(c2ccc(OC)cc2)C2=C(CC(C)(C)CC2=O)N1 (stereo not shown),2.41
10,COc1ccc(Cl)cc1NC(=O)C(C)N1CCN(c2ccccn2)CC1 (stereo not shown),0.814
11,NC1=NC[C@H](c2ccccc2)N1CCc1cc(C(F)(F)F)cc(C(F)(F)F)c1,-2.01
12,CCOC(=O)/C(C#N)=C/c1c[nH]c2ccccc12,3.21
13,O=C(CCc1ccccn1)NC1CCCc2c1cnn2-c1ccc(F)cc1F (stereo not shown),5.66
14,Cc1ccc(CN2C(=O)[C@H]3Cc4c([nH]c5ccccc45)C(C)(C)N3C2=O)cc1,19.7
15,COc1ccccc1C(=O)NNC(=O)c1cccc(Br)c1,16.4
16,COc1cc(S(=O)(=O)NC(C)C)ccc1Cl,1.36
17,CC(Sc1nnc(-c2ccc(OC(F)F)cc2)o1)C(=O)NCC1CCCO1 (stereo not shown),-7.64
18,CCOc1ccc(C(C)=O)cc1COc1cccnc1[N+](=O)[O-],9.57
19,CCN1C(=O)S/C(=C\c2ccc(N3CCOCC3)cc2C)C1=O,-25.1
20,O=C(/C=C/c1cccs1)NC(=S)Nc1ccc(S(=O)(=O)Nc2ccccc2C(F)(F)F)cc1,10.2
21,COc1ccc(C)cc1NC(=O)c1ccc([N+](=O)[O-])cc1[N+](=O)[O-],3.08
22,CCCCN(CCCC)c1nc(-c2ccncc2)nc2ccccc12,12
